In patent US8236283B2, “Optical imaging” (GE Healthcare AS, priority 2005, dated 2012):
Positions of bridges follow the written chain, without caps; N, C: chain ends. Residues, ends and D or L forms follow the SMILES beside them. *: point of attachment. 6FAM = O=C1OC2(c3ccc(O)cc3Oc3cc(O)ccc32)c2cc(C(=O)*)ccc21; X1 = NC(=O)COCC(=O)NCCOCCOCCOCCN*

Test system: laser-induced CNV lesions of the eye
Experiment: Imaging of choroid neovascularization (CNV) in rat, fluorescence fundus imaging
Settings: Long Evans rat, i.v. 20 μg/kg, 1 hour post inducing CNV (day 0 post-laser), images taken immediately after administration; compared to the negative control (FIG. 1 vs FIG. 2)

## N=C(N)NCCC[C@@H]1NC(=O)[C@@H]2CSSC[C@H](NC(=O)[C@H](CC(=O)O)NC(=O)CNC1=O)C(=O)N[C@@H](Cc1ccccc1)C(=O)N[C@H](C(=O)NCCOCCOCCOCCNC(=O)COCC(N)=O)CSCC(=O)N[C@@H](CCCCNC(=O)c1ccc3c(c1)C1(OC3=O)c3ccc(O)cc3Oc3cc(O)ccc31)C(=O)N2 [Contrast agent H, disulfide [Cys^2-6] thioether cyclo[CH2CO-Lys(fluorescein)-Cys^2-Arg-Gly-Asp-Cys^6-Phe-Cys]-PEG-NH2] ({CH2CO}-K(6FAM)CRGDCFC-X1; disulfide 2-6; thioether N-8)
  intensity of signal for the induced lesions of the eye: increased intensity of signal
